Reference: the supplement of paper PMC9046079
Where a name gives a salt, the structure may show the parent alone. ± gives the standard deviation of the averaged measurements. This is one part of the list.

Columns and labels:
[1] = test system: murine small intestinal organoids (ENR+CD Paneth differentiation); test: cellular ATP (CellTiter-Glo 3D) relative to plate median (log10 fold change); higher = more viable cells; details: 6 d
[2] = test system: murine small intestinal organoids (ENR+CD Paneth differentiation); test: carbachol-stimulated secreted lysozyme activity relative to plate median (log10 fold change); higher = more Paneth cell lysozyme secretion; details: 6 d, carbachol 10 µM
[3] = test system: murine small intestinal organoids (ENR+CD Paneth differentiation); test: basal (non-stimulated) secreted lysozyme activity relative to plate median (log10 fold change); higher = more Paneth cell lysozyme secretion; details: 6 d
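For basal (non-stimulated) secreted lysozyme activity relative to plate median in this document: ISC-enriched organoid precursors grown as 2.5D pseudo-monolayer on Matrigel, compound given on day 0 and day 3, plate values LOESS-normalized before median fold change, three murine donors.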
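For cellular ATP (CellTiter-Glo 3D) relative to plate median in this document: 2.5D pseudo-monolayer culture of ISC-enriched organoids partly embedded atop Matrigel, compound added on day 0 and again on day 3, per-plate LOESS correction before median fold change.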

Compound	cellular ATP (log10) ([1]; 0.08 µM)	cellular ATP (log10) ([1]; 0.4 µM)	cellular ATP (log10) ([1]; 2 µM)	cellular ATP (log10) ([1]; 10 µM)	carbachol-stimulated secreted lysozyme activity (log10) ([2]; 0.08 µM)	carbachol-stimulated secreted lysozyme activity (log10) ([2]; 0.4 µM)	carbachol-stimulated secreted lysozyme activity (log10) ([2]; 2 µM)	carbachol-stimulated secreted lysozyme activity (log10) ([2]; 10 µM)	basal (log10) ([3]; 0.08 µM)	basal (log10) ([3]; 0.4 µM)	basal (log10) ([3]; 2 µM)	basal (log10) ([3]; 10 µM)
CCOC(=O)CCNc1cc(N2CCc3ccccc3CC2)nc(-c2ccccn2)n1	0.124 ± 0.26	0.0994 ± 0.27	0.00235 ± 0.3	0.233 ± 0.097	0.118 ± 0.076	0.178 ± 0.19	0.0654 ± 0.1	0.0073 ± 0.21	0.0583 ± 0.067	0.0497 ± 0.13	0.0176 ± 0.11	-0.000637 ± 0.081
O=C(NC(Cc1cc(=O)[nH]c2ccccc12)C(=O)O)c1ccc(Cl)cc1 (stereo unspecified) [Rebamipide]	-0.19 ± 0.29	-0.598 ± 0.37	-0.249 ± 0.13	-0.343 ± 0.26	-0.0667 ± 0.063	-0.0661 ± 0.27	0.0951 ± 0.54	-0.026 ± 0.15	-0.0521 ± 0.054	-0.0352 ± 0.12	-0.0847 ± 0.078	-0.0587 ± 0.074
CCCc1nc2c(C)cc(-c3nc4ccccc4n3C)cc2n1Cc1ccc(-c2ccccc2C(=O)O)cc1 [Telmisartan]	0.141 ± 0.17	0.303 ± 0.24	0.3 ± 0.36	0.405 ± 0.31	0.0475 ± 0.25	0.126 ± 0.069	0.156 ± 0.033	0.104 ± 0.062	0.084 ± 0.13	0.126 ± 0.087	0.0829 ± 0.019	0.0875 ± 0.13
O=C(Nc1ccccc1)N1CCN(c2nc(-c3ccccc3)ns2)CC1	-0.0941 ± 0.39	-0.262 ± 0.24	-0.0548 ± 0.33	-0.145 ± 0.31	0.161 ± 0.19	-0.00452 ± 0.011	-0.0512 ± 0.05	-0.058 ± 0.086	0.122 ± 0.095	0.075 ± 0.16	0.103 ± 0.23	0.0466 ± 0.14
Cc1cccc(-c2[nH]ncc2-c2ccc3ncccc3n2)n1	-0.222 ± 0.44	0.22 ± 0.47	-0.173 ± 0.21	-0.1 ± 0.77	-0.0704 ± 0.13	0.187 ± 0.2	0.179 ± 0.15	0.00111 ± 0.031	0.107 ± 0.2	0.147 ± 0.16	0.0949 ± 0.042	-0.0147 ± 0.069
Cc1ccccc1C(=O)Nc1ccc(C(=O)N2CCCC(O)c3cc(Cl)ccc32)c(C)c1 (stereo unspecified) [Tolvaptan]	0.115 ± 0.061	-0.0355 ± 0.088	-0.0983 ± 0.18	-0.169 ± 0.26	0.0494 ± 0.19	0.202 ± 0.24	0.13 ± 0.29	-0.0847 ± 0.12	0.0173 ± 0.06	-0.0491 ± 0.023	-0.0515 ± 0.044	-0.131 ± 0.037
CCc1cc(Nc2nccc(-c3c(-c4ccc(OC)c(C(=O)Nc5c(F)cccc5F)c4)nc4ccccn34)n2)c(OC)cc1N1CCC(N2CCN(S(C)(=O)=O)CC2)CC1	0.202 ± 0.21	-0.0713 ± 0.3	-0.57 ± 0.43	-0.691 ± 0.15	0.113 ± 0.026	0.00503 ± 0.045	-0.287 ± 0.11	-0.331 ± 0.044	0.102 ± 0.038	0.112 ± 0.25	-0.179 ± 0.045	-0.163 ± 0.085
Oc1cc(O)cc(/C=C/c2ccc(O)c(O)c2)c1 [Piceatannol]	0.232 ± 0.17	-0.0905 ± 0.17	0.0741 ± 0.39	-0.071 ± 0.4	-0.0254 ± 0.0018	0.046 ± 0.082	-0.0908 ± 0.19	-0.176 ± 0.15	0.0802 ± 0.11	0.0431 ± 0.084	0.0253 ± 0.14	-0.0211 ± 0.12
COc1ccc(C2CNC(=O)C2)cc1OC1CCCC1 (stereo unspecified) [Rolipram]	0.419 ± 0.25	0.237 ± 0.23	0.406 ± 0.14	0.279 ± 0.15	0.254 ± 0.14	0.14 ± 0.2	0.303 ± 0.35	0.149 ± 0.23	0.266 ± 0.29	0.0446 ± 0.042	0.155 ± 0.14	0.11 ± 0.1
O=C(Nc1cccc(C(F)(F)F)c1)Nc1cc(S(=O)(=O)NC2CC2)ccc1-c1ccsc1	0.281 ± 0.15	0.231 ± 0.21	0.298 ± 0.14	0.107 ± 0.036	0.0428 ± 0.0069	0.114 ± 0.037	-0.0173 ± 0.13	-0.0776 ± 0.047	0.0686 ± 0.058	0.0308 ± 0.049	0.0429 ± 0.068	-0.0901 ± 0.025
CC[C@H](C)C(=O)O[C@H]1C[C@@H](C)C=C2C=C[C@H](C)[C@H](CC[C@@H]3C[C@@H](O)CC(=O)O3)[C@H]21 [Lovastatin]	-0.322 ± 0.36	-0.492 ± 0.15	-1.17 ± 0.23	-1.39 ± 0.54	0.0237 ± 0.077	0.00989 ± 0.12	-0.504 ± 0.1	-0.542 ± 0.043	0.00193 ± 0.082	-0.0565 ± 0.043	-0.279 ± 0.14	-0.271 ± 0.11
COCCCC/C(=N\OCCN)c1ccc(C(F)(F)F)cc1 [Fluvoxamine maleate]	0.115 ± 0.24	0.254 ± 0.25	0.211 ± 0.18	0.138 ± 0.19	0.13 ± 0.1	0.155 ± 0.12	0.045 ± 0.04	-0.0208 ± 0.098	0.0738 ± 0.049	0.0869 ± 0.054	0.0893 ± 0.12	-0.027 ± 0.11
COc1cc(N2CCC(N)CC2)ccc1Nc1ncc(Cl)c(-c2c[nH]c3ccccc23)n1	-0.275 ± 0.46	-0.341 ± 0.44	-0.772 ± 0.86	-0.96 ± 0.27	-0.22 ± 0.12	-0.4 ± 0.14	-0.415 ± 0.1	-0.428 ± 0.14	-0.147 ± 0.086	-0.19 ± 0.11	-0.232 ± 0.13	-0.209 ± 0.16
CCOC(=O)N1CCC(=C2c3ccc(Cl)cc3CCc3cccnc32)CC1 [Loratadine]	-0.292 ± 0.27	0.145 ± 0.048	-0.204 ± 0.16	-0.12 ± 0.16	-0.0687 ± 0.064	0.0113 ± 0.0097	-0.189 ± 0.11	-0.125 ± 0.044	0.0107 ± 0.042	-0.000548 ± 0.072	-0.108 ± 0.079	-0.101 ± 0.032
NC(=O)c1ccc(-c2nc(-c3ccccn3)c(-c3ccc4c(c3)OCO4)[nH]2)cc1	0.385 ± 0.2	0.333 ± 0.22	0.2 ± 0.17	0.0802 ± 0.094	0.123 ± 0.11	0.325 ± 0.4	0.264 ± 0.043	0.136 ± 0.2	0.0878 ± 0.12	0.129 ± 0.16	0.158 ± 0.14	0.0593 ± 0.11
CC1(C)CCC(c2ccc(Cl)cc2)=C(CN2CCN(c3ccc(C(=O)NS(=O)(=O)c4ccc(N[C@H](CCN5CCOCC5)CSc5ccccc5)c(S(=O)(=O)C(F)(F)F)c4)cc3)CC2)C1 [ABT-263 (Navitoclax)]	-0.212 ± 0.3	-0.264 ± 0.17	-0.368 ± 0.27	-0.962 ± 0.11	-0.0755 ± 0.16	-0.000608 ± 0.07	-0.213 ± 0.15	-0.458 ± 0.19	0.012 ± 0.13	0.00709 ± 0.05	-0.143 ± 0.082	-0.259 ± 0.095
C[C@@H]1CCN(C(=O)CC#N)C[C@@H]1N(C)c1ncnc2[nH]ccc12	0.154 ± 0.05	0.274 ± 0.13	0.082 ± 0.14	0.0915 ± 0.33	-0.024 ± 0.11	0.064 ± 0.013	0.105 ± 0.082	0.0198 ± 0.032	-0.0147 ± 0.064	0.043 ± 0.021	0.025 ± 0.015	0.0454 ± 0.067
Cc1cccc(-c2nn3c(c2-c2ccnc4ccc(C(N)=O)cc24)CCC3)n1	0.0913 ± 0.02	0.137 ± 0.21	0.0172 ± 0.19	0.0946 ± 0.12	0.158 ± 0.088	0.226 ± 0.11	0.0952 ± 0.042	0.221 ± 0.15	0.227 ± 0.27	0.14 ± 0.13	0.0918 ± 0.045	0.162 ± 0.07
